From paper PMC9769115

Tests used:
[1] = target: T1, IscS, cysteine desulfurase (E. coli), dimer with PLP bound (E. coli), P0A6B7; assay: native MS; as isolated IscS alone; m/z range 4000-8000, charge states 17+ to 20+, deconvoluted; conditions: remark: other sources report otherwise
T1 chain: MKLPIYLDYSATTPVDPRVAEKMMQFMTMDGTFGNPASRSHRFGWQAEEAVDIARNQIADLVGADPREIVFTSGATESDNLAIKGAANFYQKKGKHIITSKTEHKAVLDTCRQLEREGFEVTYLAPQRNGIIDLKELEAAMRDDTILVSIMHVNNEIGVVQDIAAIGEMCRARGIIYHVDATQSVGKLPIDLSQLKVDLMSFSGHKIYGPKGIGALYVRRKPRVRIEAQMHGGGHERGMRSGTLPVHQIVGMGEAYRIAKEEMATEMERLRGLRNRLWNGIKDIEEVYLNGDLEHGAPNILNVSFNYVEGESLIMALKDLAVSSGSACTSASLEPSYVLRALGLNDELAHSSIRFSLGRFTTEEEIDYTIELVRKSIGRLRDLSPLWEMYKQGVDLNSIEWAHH

[2] = target: T2, IscU, Fe-S cluster scaffold protein (E. coli) (E. coli), P0ACD4; assay: native MS; apo-IscU alone, aerobic; the dimer holds an inter-molecular disulfide and is almost completely lost 1 min after excess DTT; conditions: remark: other sources report otherwise
T2 chain: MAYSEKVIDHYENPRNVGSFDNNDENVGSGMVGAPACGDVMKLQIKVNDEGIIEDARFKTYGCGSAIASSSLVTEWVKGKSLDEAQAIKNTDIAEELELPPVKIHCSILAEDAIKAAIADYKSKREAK

B1: IscS, cysteine desulfurase (E. coli), dimer with PLP bound, P0A6B7 1-404 (enzyme)
chain: T1 chain
modifications: here or on the partner: pyridoxal phosphate (PLP) bound to each protomer; pyridoxal phosphate (PLP) bound to each protomer
stoichiometry N [1]: 2

B2: IscU, Fe-S cluster scaffold protein (E. coli), P0ACD4 1-128 (natural protein)
chain: T2 chain
stoichiometry N [2]: 2
